PubChem BioAssay AID1345083 (National Center for Advancing Translational Sciences (NCATS), 2018)
Out of some 94,000 compounds screened, about 6,200 (6.6%) were called active. This list was built around the results that the source calls inconclusive (neither active nor inactive); the mix of calls is not that of the screen. The call rests on the fitted dose curve; in most records, active means well fitted inhibition curve with a large enough effect; inconclusive means small, poorly fitted or top-dose-only effect; inactive means flat fitted curve, though single readings scatter. Potencies beside an inconclusive call are fits to weak or partial responses and may not hold up.

Assay: Cytotoxic Profiling in HEK 293 Cell Line of Diverse Libraries Using Quantitative High-Throughput Screening; further: nearly all actives have a fitted effect of over 60% in size
Details: HEK 293 viability, ATP luminescence (CellTiter-Glo), 48-72 h; series mostly up to 115 µM
In short: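 Luminescence from cellular ATP, measured with CellTiter-Glo, indicates HEK 293 viability. Cells plated at 250 cells/well are treated with compound for 48 or 72 hr at 37 degree Celsius before reagent addition.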
Potency means the concentration at half of the fitted maximal effect; tags describe the fitted curve by direction and shape.

| Structure (SMILES) | Potency |
| --- | --- |
| O=C1COCC2(CN1Cc1cccc(OC(F)(F)F)c1)CN(c1ccccn1)C2 | inconclusive: 100 µM [inhibitor, partial curve] |
| CCOCC1(C)COc2ccc(C(=O)Nc3cccc(OC)c3)cc2N1 (stereo unspecified) | inconclusive: 100 µM [inhibitor, partial curve] |
| CN(Cc1cccc2ccccc12)C1CCc2ccccc21 (stereo unspecified) | inactive |
| O=C(CCc1ccccc1)N1CCNc2cnc(Nc3cccc(C(F)(F)F)c3)nc2C1 | inconclusive: 50.1 µM [inhibitor, partial curve, poor fit] |
| COc1ccc(CC(=O)NC[C@@H]2CC[C@H]3C[C@@H]2C3(C)C)cc1 | inconclusive: 100 µM [inhibitor, partial curve, poor fit] |
| CCc1ccc(CN2CCC(Oc3ccc(C(=O)NCCOC)cc3Cl)CC2)o1 | inconclusive: 79.4 µM [inhibitor, partial curve, poor fit] |
| O=C(CC1CC1)NC1CCCc2nc(-c3ccccc3)ncc21 (stereo unspecified) | inactive |
| CCn1nc(CC(C)C)cc1C(=O)N(C)C1CCCN(C2Cc3ccccc3C2)C1 (stereo unspecified) | inconclusive: 44.7 µM [inhibitor, partial curve, poor fit] |
| CC(=O)N1CCC2(CCN(C(=O)c3ccc(Cl)cc3)CC2)Oc2ccccc21 | inconclusive: 44.7 µM [inhibitor, partial curve, poor fit] |
| COc1ccccc1CNC(=O)c1cc2cn(C(C)C)cc2s1 | inconclusive: 79.4 µM [inhibitor, partial curve, poor fit] |
| C#CCNC(=O)c1cc(-c2ccc(OC)cc2)nc2c1cnn2C | inconclusive: 63.1 µM [inhibitor, partial curve, poor fit] |
| CCN1c2cc(C(=O)Nc3cccc(C(=O)OC)c3)ccc2C(=O)N2CCCCCC21 (stereo unspecified) | inconclusive: 11.2 µM [inhibitor, full curve, poor fit] |
| COc1ccc(-c2ccc(C(=O)N(C)Cc3ccccc3)cc2)nn1 | inconclusive: 56.2 µM [inhibitor, partial curve, poor fit] |
| CC(C)CNC(=O)N1CCCCC1c1nc(CCOc2ccc(F)cc2)no1 (stereo unspecified) | inconclusive: 56.2 µM [inhibitor, partial curve, poor fit] |
| O=C(Nc1cc(-c2ccccn2)nn1-c1ccccc1)c1ccccc1Cl | inconclusive: 89.1 µM [inhibitor, single point] |
| CNC(=O)c1cc(C2CC2)nc2c1c(C1CCN([S+](=O)([O-])c3c(C)noc3C)C1)nn2C (stereo unspecified) | inconclusive: 44.7 µM [inhibitor, partial curve, poor fit] |
| CCOc1ccc(S(=O)(=O)N2CCN(C3(CC)CCN(C(=O)NC)C3)CC2)cc1 (stereo unspecified) | inconclusive: 56.2 µM [inhibitor, partial curve, poor fit] |
| COCCc1noc(-c2nc(-c3ccccc3F)no2)n1 | inactive |
| O=C(NCc1ccc(F)cc1)c1cc(-c2ccc(Cl)cc2Cl)c2cccn2n1 | inconclusive: 50.1 µM [inhibitor, partial curve, poor fit] |
| Cn1nccc1C(=O)NC1CCN(c2cc(-c3ccccc3)[nH]n2)CC1 | inconclusive: 50.1 µM [inhibitor, partial curve, poor fit] |
| COc1ccc(C2Cn3nnc(C(=O)N4CCN(C(=O)c5cccs5)CC4)c3CO2)cc1 (stereo unspecified) | inconclusive: 50.1 µM [inhibitor, partial curve, poor fit] |

| Structure (SMILES) | Potency |
| --- | --- |
| CC(=O)N1CCC(C2CCN(Cc3ccccc3C)C2)CC1 (stereo unspecified) | inactive |
| COc1cccc(-c2nnnn2[C@H]2CO[C@H]3[C@@H]2OC[C@@H]3NC(=O)c2ccc(C)cc2)c1 | inconclusive: 70.8 µM [inhibitor, partial curve] |
| CSc1ccc(NC(=O)c2cc3c(N4CCSCC4)nc(C)cn3n2)cc1 | inconclusive: 35.5 µM [inhibitor, partial curve] |
| O=C(c1ccc(F)cc1)N1CCC(C(=O)N2CCC(c3nc4ncccc4[nH]3)C2)CC1 (stereo unspecified) | inactive |
| COc1ccccc1-c1cccc(CN2CCC(NC(=O)Nc3ccc(C)c(F)c3)CC2)c1 | active: 10 µM |
| NC(=O)c1cc2c(nc1CC1CC(=O)N(c3ccccc3)C1)CCC2 (stereo unspecified) | inconclusive: 39.8 µM [inhibitor, single point] |
| Cc1nn(-c2ccccc2)c2c1C(C1CC1)N(C1CN(C(=O)Cc3ccc(F)cc3)C1)C2=O (stereo unspecified) | inconclusive: 44.7 µM [inhibitor, partial curve, poor fit] |
| Cc1ccc(OCc2nc(C3CCN(C(=O)NCc4ccccc4)C3)no2)cc1 (stereo unspecified) | active: 44.7 µM |
| O=c1cc(CN2CCCC(CCc3ccccc3C(F)(F)F)C2)[nH]c(=O)[nH]1 (stereo unspecified) | inconclusive: 79.4 µM [inhibitor, partial curve, poor fit] |
| O=C(C1CC1)N1CCC(OC2CCN(Cc3cccnc3)CC2)CC1 | inactive |
| COc1ccc(CCNC(=O)c2cc3n(n2)CC(c2ccc4c(c2)OCO4)OC3)cc1OC (stereo unspecified) | inconclusive: 44.7 µM [inhibitor, partial curve, poor fit] |
| O=C1[C@@H]2C[C@@H](CN2C2COC2)Oc2ccccc2N1Cc1ccc(OC(F)(F)F)cc1 | active: 100 µM |
| O=C1COCC2(CN1Cc1cccc(OC(F)(F)F)c1)CN(c1nccs1)C2 | inconclusive: 100 µM [inhibitor, partial curve] |
| CCCCn1c(=O)c(C(=O)NCc2ccc(F)cc2)nc2cccnc21 | inconclusive: 50.1 µM [inhibitor, partial curve, poor fit] |
| CCn1nc(CC(C)C)cc1C(=O)N1CCN(CCn2cccc2)CC1 | inconclusive: 89.1 µM [inhibitor, single point] |
| CN1C(=O)C2(CCN(C(=O)NC3CCCCC3)CC2)c2ccccc21 | inconclusive: 70.8 µM [inhibitor, single point] |
| COc1ccc(C2(C(=O)N3c4ccccc4CC3c3noc(C4CCOCC4)n3)CC2)cc1 (stereo unspecified) | inconclusive: 50.1 µM [inhibitor, partial curve, poor fit] |
| Cc1ccc(C(=O)N2CCC3(CC2)CC(N(Cc2ccccc2)C2CC2)CCO3)s1 (stereo unspecified) | inconclusive: 50.1 µM [inhibitor, partial curve, poor fit] |
| CN1CCCCCC(O)c2cc(C(=O)NCc3cccc(C(F)(F)F)c3)ccc21 (stereo unspecified) | inconclusive: 50.1 µM [inhibitor, partial curve, poor fit] |
| Cc1cc(C(=O)N2CCCCCCNC(=O)[C@@H]3CCCC[C@@H]32)nn1C | inconclusive: 79.4 µM [inhibitor, partial curve] |
| O=C(CCC1CCN(C(=O)c2cc(C3CC3)[nH]n2)CC1)N1CCC(Cc2ccccc2)CC1 | inconclusive: 50.1 µM [inhibitor, partial curve, poor fit] |

| Structure (SMILES) | Potency |
| --- | --- |
| COc1ccc(C(=O)N2CCCCC23Cc2ccccc2NC3=O)cc1 (stereo unspecified) | inconclusive: 79.4 µM [inhibitor, partial curve] |
| CCc1cc(N(C)Cc2noc(C3CC3)n2)n2nc(C)c(C)c2n1 | inconclusive: 79.4 µM [inhibitor, single point] |
| C1CC(COCCc2noc(C3CNC3)n2)CCO1 | active: 7.94 µM |
| COc1cccc(C(O)c2nc(C(=O)N3CCN(c4ccccn4)CC3)c(C)o2)c1 (stereo unspecified) | inconclusive: 126 µM [inhibitor, single point] |
| c1ccc(-c2ccnc3nc(C4CCC4)nn23)cc1 | inconclusive: 89.1 µM [inhibitor, single point] |
| O=C(c1ccccc1F)N1CCn2c(nn(-c3ccncc3)c2=O)C1 | inconclusive: 100 µM [inhibitor, partial curve] |
| COc1ccc(-c2ccc(C(=O)N(C)CC#N)cc2)nn1 | inactive |
| CC(C)NC(=O)N1CCC2(CC1)CN(C(=O)Cc1cccc(O)c1)Cc1ccccc1O2 | inactive |
| COc1ccc(C2=NOC3(CCCN([S+](=O)([O-])c4ccccc4)C3)C2)cc1 (stereo unspecified) | inconclusive: 70.8 µM [inhibitor, partial curve, poor fit] |
| COc1cc(-c2ccnc3nc(Cc4ccc(F)cc4)nn23)cc(OC)c1OC | active: 31.6 µM |
| O=C(c1cccc(Cl)c1)N1CCCC(C(=O)N2CCC(c3ccccc3)CC2)C1 (stereo unspecified) | inconclusive: 50.1 µM [inhibitor, partial curve, poor fit] |
| O=C(CCC1CCCN(S(=O)(=O)c2ccccc2F)C1)NCc1cccs1 (stereo unspecified) | inconclusive: 79.4 µM [inhibitor, single point] |
| CC(C)CN1CCN(C(=O)CCC[C@@H]2[C@H]3CCCN4CCC[C@@H](CN2C(=O)c2cccnc2)[C@@H]34)CC1 | inactive |
| O=C(NCC(F)(F)F)C1CCCCN1Cc1ccc(-c2cccs2)cc1 (stereo unspecified) | inactive |
| O=C(c1cn2ccccc2n1)N1C[C@@H](CO)[C@H](c2ccncc2)C1 | inactive |
| Cc1cc(C(=O)N2CCC(CCOc3ccc(F)cc3)C2)c(C)n1Cc1ccc(F)cc1 (stereo unspecified) | inconclusive: 20 µM [inhibitor, full curve, poor fit] |
| O=C(NCCc1ccccc1)c1ccc(CN2C(=O)NC3(CCOCC3)C2=O)cc1 | inconclusive: 89.1 µM [inhibitor, single point] |
| COC(=O)c1ccc(CN2C(=O)[C@@H]3C[C@@H](O)CN3C3(CN(Cc4ccc(C(F)(F)F)cc4)C3)C2=O)cc1 | inconclusive: 89.1 µM [inhibitor, partial curve, poor fit] |
| CSc1ccc(-c2cccc(C(=O)NCC(=O)N3CCCC3)c2)cc1 | inconclusive: 8.91 µM [inhibitor, full curve, poor fit] |
